The source of these data is patent publication US20190016784A1 (CSL BEHRING LENGNAU, published 2019).

Assay [1] deals with T1, CSL627 (recombinant Factor VIII, rVIII-SingleChain) (human, UniProt P00451 20-2351).
T1 construct: the tie is indirect; also called FVIII; CSL627-rVIII-SingleChain
T1 sequence: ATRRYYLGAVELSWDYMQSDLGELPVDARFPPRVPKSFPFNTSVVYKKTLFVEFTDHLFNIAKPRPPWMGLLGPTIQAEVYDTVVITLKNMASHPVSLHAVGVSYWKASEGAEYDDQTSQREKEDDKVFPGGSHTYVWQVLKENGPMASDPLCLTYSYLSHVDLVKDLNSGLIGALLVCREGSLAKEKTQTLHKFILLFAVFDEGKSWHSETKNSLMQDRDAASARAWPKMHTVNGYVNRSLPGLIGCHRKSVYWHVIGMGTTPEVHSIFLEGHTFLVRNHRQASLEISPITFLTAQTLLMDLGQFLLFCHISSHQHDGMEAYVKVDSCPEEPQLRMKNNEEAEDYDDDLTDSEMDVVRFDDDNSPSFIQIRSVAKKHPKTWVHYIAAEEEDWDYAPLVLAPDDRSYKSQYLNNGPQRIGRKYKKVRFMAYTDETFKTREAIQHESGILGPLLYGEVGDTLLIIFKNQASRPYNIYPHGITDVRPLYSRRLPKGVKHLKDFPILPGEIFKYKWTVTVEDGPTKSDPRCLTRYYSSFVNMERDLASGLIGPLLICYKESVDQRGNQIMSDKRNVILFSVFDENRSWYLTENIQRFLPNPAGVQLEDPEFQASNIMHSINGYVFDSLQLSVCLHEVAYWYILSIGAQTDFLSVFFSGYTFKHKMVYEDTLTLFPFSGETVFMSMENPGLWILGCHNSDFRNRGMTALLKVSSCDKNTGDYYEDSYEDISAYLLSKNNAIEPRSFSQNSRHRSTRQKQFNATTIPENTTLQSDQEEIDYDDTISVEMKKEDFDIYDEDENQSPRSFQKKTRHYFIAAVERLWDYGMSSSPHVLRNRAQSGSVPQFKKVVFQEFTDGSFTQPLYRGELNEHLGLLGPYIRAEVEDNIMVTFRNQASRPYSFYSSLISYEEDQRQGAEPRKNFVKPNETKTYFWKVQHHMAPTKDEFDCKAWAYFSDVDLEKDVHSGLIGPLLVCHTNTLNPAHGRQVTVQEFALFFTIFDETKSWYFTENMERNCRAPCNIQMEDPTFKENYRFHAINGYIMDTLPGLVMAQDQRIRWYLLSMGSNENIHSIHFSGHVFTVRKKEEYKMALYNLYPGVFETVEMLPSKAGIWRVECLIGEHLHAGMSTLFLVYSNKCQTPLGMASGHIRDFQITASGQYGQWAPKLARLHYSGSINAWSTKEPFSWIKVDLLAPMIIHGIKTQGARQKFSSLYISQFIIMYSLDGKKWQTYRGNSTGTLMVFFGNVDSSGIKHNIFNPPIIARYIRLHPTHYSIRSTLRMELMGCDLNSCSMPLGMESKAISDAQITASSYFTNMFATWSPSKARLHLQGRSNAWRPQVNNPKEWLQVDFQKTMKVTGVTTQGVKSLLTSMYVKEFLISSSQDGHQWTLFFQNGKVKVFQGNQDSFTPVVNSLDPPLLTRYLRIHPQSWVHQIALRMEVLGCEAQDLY
In words: SPR at acidic pH (5.5), summary in the conclusion.

In assay [2] the target is T1, CSL627 (recombinant Factor VIII, …). Nature of the assay: SPR at neutral pH, summary in the conclusion.
Assay [3] shares this target. Nature of the assay: SPR detailed kinetics at pH 5.5, 37 C; purified dimer from the single D1D2D′D3-HSA construct captured on anti-HSA antibody, CSL627 injected; 1:1 fit with mass transport. As for the experimental part: (§1) Mouse anti-HSA antibody was immobilized on a CMS chip using standard NHS/EDC coupling chemistry. Typically, the immobilization level was about 14,000 RU. Each Dimer mutant of D′D3-HSA was captured on a single spot in each flow cell for 2 minutes at various concentrations ranging from 0.2-0.7 μg/ml. Capture levels ranged from 50-250 RU. An adjacent spot in which anti-HSA was immobilized, but no D′D3-HSA captured was used as a reference. Capture was performed every cycle, before FVIII (CSL627) binding analysis.
(§2) CSL627 was injected at random and in duplicate over all spots in all flow cells. […] The association was monitored for 5 minutes, while the dissociation was monitored for 20 minutes as well as for 1 hour at the 1 nM concentration. Buffer blanks were also injected. At pH5.5 CSL627 was injected at various concentrations and time frames that best suited the interaction taking place.
(§3) After the dissociation period the surface was regenerated with a 45 second injection of 25 mM Glycine pH2.6. Running buffer throughout was 10 mM HEPES, 150 mM NaCl, 10 mM Na Citrate, 2.5 mM CaCl2, 0.1% BSA, pH7.3 and pH5.5, while the flow rate was 30 μl/min. Each interaction was measured 4 times (n=4) at 37° C.

The target is the same in assay [4]. Nature of the assay: SPR detailed kinetics at pH 7, 37 C; purified dimer from the single D1D2D′D3-HSA construct captured on anti-HSA antibody, CSL627 injected; 1:1 fit with mass transport. As for the experimental part:
as §1, §2, §3

For assay [5] the target is unchanged. In words: SPR detailed kinetics at pH 5.5, 37 C; purified D′D3-HSA dimer captured on anti-HSA antibody, Factor VIII injected; 1:1 fit with mass transport. As to the method:
(§4) Subsequent experiments were conducted using purified material where detailed kinetic analysis at pH7 was set up for the top two candidates, including controls. vWF-HAS proteins were purified using Capture Select™ Human Albumin affinity resin and then the vWF-HAS dimer further purified by preparation Size Exclusion Chromatography. Purified material was then stored at 4° C. prior to analysis. […] In a similar manner detailed kinetic analysis on the top two candidates, including controls was set up at pH5.5 where Factor VIII was injected at various concentrations that best suited the interaction.
(§5) Throughout all experiments buffer blanks were also injected over all captured proteins. The association and dissociation of Factor VIII was monitored for 3 minutes respectively during the “screening” experiment. The association of CSL627 was monitored for 5 minutes and dissociation was monitored for 20 and 60 minutes during the “detailed kinetic analysis” experiments at neutral pH. At pH 5.5 the association and dissociation of Factor VIII was monitored for various time frames that best suited the interaction.
(§6) Responses for binding to the reference spot were subtracted from those of the vWF-HSA captured spots. Responses from blank injections were then subtracted from those of all other samples to produce double-referenced sensorgrams. Double referenced sensorgrams were fitted to a 1:1 kinetic model, including a term for mass transport limitation. Association and dissociation rates were fitted globally and Rmax fitted locally.

Assay [6] shares this target. Nature of the assay: SPR detailed kinetics at pH 7, 37 C; purified D′D3-HSA dimer captured on anti-HSA antibody, Factor VIII (CSL627) injected; 1:1 fit with mass transport. As to the method: as §4, §5, §6
For assay [7] the target is unchanged. Nature of the assay: SPR screen at pH 7; D′D3-HSA from culture supernatant captured on anti-HSA antibody, Factor VIII injected. As to the method: Mouse anti-HSA antibody was immobilized on a CMS chip using standard NHS/EDC coupling chemistry. Typically, the immobilization level was about 14,000 RU. Each mutant of vWF-HSA was captured on a single spot in each flow cell for 2 minutes at various concentrations ranging from 0.1-1 μg/ml. Capture levels ranged from 100-200 RU. An adjacent spot in which anti-HSA was immobilized, but no vWF-HSA captured was used as a reference. Capture was performed every cycle, before FVIII binding analysis.
An initial experiment was set up at neutral pH to screen a series of mutations for the top affinity and off rate improved vWF-HSA mutants. […]
as §5

Some results are limits rather than exact numbers.

B1: vWF D′D3-HSA dimer S764E, S766Y, V1083A (other)
chain: ELYCRPPMVKLVCPADNLRAEGLECTKTCQNYDLECMSMGCVSGCLCPPGMVRHENRCVALERCPCFHQGKEYAPGETVKIGCNTCVCRDRKWNCTDHVCDATCSTIGMAHYLTFDGLKYLFPGECQYVLVQDYCGSNPGTFRILVGNKGCSHPSVKCKKRVTILVEGGEIELFDGEVNVKRPMKDETHFEVVESGRYIILLLGKALSVVWDRHLSISVVLKQTYQEKVCGLCGNFDGIQNNDLTSSNLQVEEDPVDFGNSWKVSSQCADTRKVPLDSSPATCHNNIMKQTMVDSSCRILTSDVFQDCNKLVDPEPYLDACIYDTCSCESIGDCACFCDTIAAYAHVCAQHGKVVTWRTATLCPQSCEERNLRENGYECEWRYNSCAPACQVTCQHPEPLACPVQCVEGCHAHCPPGKILDELLQTCVDPEDCPVCEVAGRRFASGKKVTLNPSDPEHCQICHCDVVNLTCEACQEPGG[omitted - about 600 residues]
notes: also called EYA; EYA Dimer; not shown: glycine serine linker between VWF part and albumin
B1: in assay [1], the “fold improvement in affinity compared to the wild-type dimer” value (“fold improvement in affinity” below) was about 100 fold and the “fold improvement in off rate compared to the wild-type dimer” value (“fold improvement in off rate” below) is at least 10 fold. In addition, in assay [2], the “fold improvement in affinity” value was about 20 fold and the “fold improvement in off rate” value was about 40 fold. Further, in assay [3], the equilibrium dissociation constant (Kd) is 0.535 nM, the koff turned out to be 0.00189 s⁻¹ and the kon worked out at 3.61e+06 M⁻¹ s⁻¹. Moreover, in assay [4], the Kd was found to be 0.00565 nM, the off-rate (koff) stood at 4.77e-05 s⁻¹ and the kon was found to be 8.59e+06 M⁻¹ s⁻¹.

B2: vWF D′D3-HSA dimer S764G, S766Y, V1083A (other)
chain: GLYCRPPMVKLVCPADNLRAEGLECTKTCQNYDLECMSMGCVSGCLCPPGMVRHENRCVALERCPCFHQGKEYAPGETVKIGCNTCVCRDRKWNCTDHVCDATCSTIGMAHYLTFDGLKYLFPGECQYVLVQDYCGSNPGTFRILVGNKGCSHPSVKCKKRVTILVEGGEIELFDGEVNVKRPMKDETHFEVVESGRYIILLLGKALSVVWDRHLSISVVLKQTYQEKVCGLCGNFDGIQNNDLTSSNLQVEEDPVDFGNSWKVSSQCADTRKVPLDSSPATCHNNIMKQTMVDSSCRILTSDVFQDCNKLVDPEPYLDACIYDTCSCESIGDCACFCDTIAAYAHVCAQHGKVVTWRTATLCPQSCEERNLRENGYECEWRYNSCAPACQVTCQHPEPLACPVQCVEGCHAHCPPGKILDELLQTCVDPEDCPVCEVAGRRFASGKKVTLNPSDPEHCQICHCDVVNLTCEACQEPGG[omitted - about 600 residues]
notes: Albumin fusion, dimer; treated as one molecule; also called GYA; GYA mutant; not shown: glycine serine linker between VWF part and albumin
Regarding B2, the “fold improvement in affinity” value in assay [2] was about 20 fold. The “fold improvement in off rate” value in assay [2] was about 40 fold. The Kd is 4.05 nM in assay [5]; 2.93 nM in assay [3]; 0.0045 nM in assay [6]; 0.00496 nM in assay [4]; 0.0301 nM in assay [7]. Further, the koff in assay [5] was 0.00812 s⁻¹; in assay [3], 0.0156 s⁻¹; in assay [6], 7.3e-05 s⁻¹; in assay [4] it was 6.44e-05 s⁻¹; in assay [7], 0.000186 s⁻¹. Besides, the kon amounted to 2.05e+06 M⁻¹ s⁻¹ in assay [5]; 6.81e+06 M⁻¹ s⁻¹ in assay [3]; 1.63e+07 M⁻¹ s⁻¹ in assay [6]; 1.33e+07 M⁻¹ s⁻¹ in assay [4]; 6.19e+06 M⁻¹ s⁻¹ in assay [7].
